Measurements taken from patent publication US11903917B2, “MEK-inhibitor for the treatment of viral and bacterial infections” (priority 2017, dated 2024).

Test system: MRSA strain S. aureus (USA300)
Assay: Cell-free culture bacterial growth (OD600)
Conditions: Staphylococcus aureus, 6 h, read-out: concentration needed to inhibit 50% of bacterial growths
Protocol: Bacterial growth was monitored for 360 minutes.
For investigation of the concentrations of PD-0184264 needed to inhibit bacterial growth, PD-0184264 was administrated in different concentrations (as indicated in FIG. 3) to an over-night culture of S. aureus USA300 (MRSA). MRSA bacteria were incubated with different concentrations of the MEK inhibitor ranging from 0-100 μM and bacterial growth was monitored six hours after cultivation. The concentration needed to inhibit 50% of bacterial growths was in the range of 15-25 μM.

**Q.** Which IC50 does the source give for `O=C(O)c1ccc(F)c(F)c1Nc1ccc(I)cc1Cl` [PD-0184264, 2-(2-chloro-4-iodophenylamino)-N-3,4-difluoro benzoic acid] here?
**A.** 15 to 25 µM
